Values joined by “and” are separate entries in the source; they are usually repeats but may differ in a detail not shown here. Equal entries are not always repeated. Out of some 360,000 compounds screened, about 11,000 (3.1%) were called active. Inconclusive means that the source gave no clear call. Such entries were picked first, then a sample of the others. Calls come from the whole dose curve; as a rule, active = well fitted inhibition curve with a large enough effect; inconclusive = small, poorly fitted or top-dose-only effect; inactive = no such curve, though single readings can be large or run the other way. A potency beside an inconclusive call is a rough fit, not a confirmed value.
What follows are compounds tested against Schistosoma mansoni thioredoxin glutathione reductase (TGR) (UniProt Q962Y6) (assay: qHTS Assay for the Inhibitors of Schistosoma Mansoni Peroxiredoxins). Details: purified TGR, DTNB reduction, TNB absorbance 405 nm; activity change, negative = inhibition: at 114 µM (top of the series) unless noted.
How it was run: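 Kinetic colorimetric format: TGR-catalysed, NADPH-driven DTNB reduction monitored via TNB absorbance. Enzyme dispensed at 20 nM; compound exposure 15 min at room temperature before reaction start.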
COc1ccccc1N1C[C@@H]2C[C@@H](c3ccco3)N3CCC[C@@]23C1=O was tested, and the Potency was inconclusive: 44.7 µM [inhibitor, partial curve].
NS(=O)(=O)c1ccc(N=Nc2c(O)c(C(=O)O)cc3ccccc23)cc1 was tested, and the Potency was inconclusive: 56.2 µM [inhibitor, partial curve].
In the case of COCCCNc1nc2nonc2nc1N1C[C@H]2CC[C@H]1C2, the “activity change, negative = inhibition” value is reported as inactive: 1.12%.
COc1cc(/C=C/C(=O)O)ccc1OS(=O)(=O)c1c(C)cc(C)cc1C was tested, and the Potency was inconclusive: 10 µM [inhibitor, partial curve, poor fit].
With COc1cc(-c2nnc(NC(=O)CCS(=O)(=O)c3ccccc3)o2)cc(OC)c1OC the Potency was active: 28.2 µM.
With Cc1ccc(C)n1-c1ccc(N2CCOCC2)c(Br)c1 the Potency was inconclusive: 50.1 µM [inhibitor, partial curve].
Cc1ccc(NC(=O)c2cc(CN3CCOCC3)on2)cc1Cl was tested, and the “activity change, negative = inhibition” value was inactive: -9.34%.
For Cc1ccccc1NC(=O)CCOc1ccccc1, the Potency was inconclusive: 35.5 µM [inhibitor, partial curve] and inconclusive: 14.1 µM [inhibitor, partial curve].
In the case of COc1cc2cc(C(=O)Nc3ccc4c(c3)OCCO4)[nH]c2cc1OC, the “activity change, negative = inhibition” value is reported as inactive: -5.65%.
With CS/C(=C/[N+](=O)[O-])Nc1cccc2c1C(C)CC2(C)C (centres undefined) the Potency was active: 12.6 µM.
With COc1ccccc1N1CCN(C(=O)c2c(-c3c(F)cccc3Cl)noc2C)CC1 the “activity change, negative = inhibition” value was inactive: -0.863%.
COCCNC(=O)c1ccc2c(c1)N(Cc1ccc(C(F)(F)F)cc1)C(=O)c1ccccc1S2 was tested, and the “activity change, negative = inhibition” value was inactive: 2.28%.
With O=C(c1ccc2ccccc2c1)C1CCCN(S(=O)(=O)c2cccnc2)C1 (centres undefined) the Potency was inconclusive: 50.1 µM [inhibitor, partial curve].
For COc1cc2c(cc1OC)CN(c1nc(-c3cccnc3)nc3ccccc13)CC2, the Potency was inconclusive: 79.4 µM [inhibitor, partial curve].
In the case of O=c1[nH]c(CN2CCCC2)nc2sc3c(c12)CCC3, the “activity change, negative = inhibition” value is reported as inactive: -24.9%.
In the case of Cc1cccc(OCC(=O)OCC(=O)NCC2CCCO2)c1C (centres undefined), the “activity change, negative = inhibition” value is reported as inactive: -10.3%.
In the case of O=C(CC1CCCCC1)c1c(O)c2ccccc2oc1=O, the Potency is reported as active: 50.1 µM.
c1ccc2c(c1)CNc1ccccc1C2 was tested, and the Potency was inconclusive: 50.1 µM [inhibitor, partial curve].
With CCn1cc(CN2CCCC(CNS(=O)(=O)Cc3ccccc3)C2)cn1 (centres undefined) the Potency was inconclusive: 44.7 µM [inhibitor, partial curve].
O=C(Nc1cccnc1Cl)c1cc(-c2ccc(O)cc2)on1 was tested, and the “activity change, negative = inhibition” value was inactive: -2.04%.
For O=S(=O)(c1ccccc1)c1nc(-c2cccs2)oc1N1CCCCC1, the Potency was inconclusive: 44.7 µM [inhibitor, partial curve].
In the case of Cc1ccc2c(c1)C(O)(CC(=O)/C=C/C=C/c1ccccc1)C(=O)N2 (centres undefined), the “activity change, negative = inhibition” value is reported as inactive: -34.3%.
In the case of CCOC(=O)c1ccc(-n2c(CCC(=O)O)ccc2-c2ccc(F)cc2)cc1, the Potency is reported as active: 22.4 µM.
With CCCC[C@@H]1CNCCN1CCc1cccc2ccccc12 the Potency was inconclusive: 39.8 µM [inhibitor, partial curve].
Cc1ccc(-c2nc3cnccn3c2Nc2ccccc2)o1 was tested, and the Potency was inconclusive: 7.94 µM [inhibitor, full curve].
With COC(=O)c1cccc(CSc2nnc(-c3ccco3)n2-c2ccccc2)c1 the Potency was inconclusive: 44.7 µM [inhibitor, partial curve].
Cc1ccc(OCCOc2cccc(C=C3C(=O)NC(=O)NC3=O)c2)cc1 was tested, and the Potency was inconclusive: 22.4 µM [inhibitor, partial curve].
For COc1cccc(CN2CCN(Cc3ccc4cccc(F)c4n3)CC2CCO)c1 (centres undefined), the Potency was inconclusive: 50.1 µM [inhibitor, partial curve].
COc1ccc2c3c(c(=O)oc2c1)C1O[C@](c2ccsc2)(Cc2ccccc21)O3 was tested, and the Potency was inconclusive: 14.1 µM [inhibitor, partial curve].
With c1ccc(CCCNCC2COc3ccccc3O2)cc1 (centres undefined) the Potency was inconclusive: 44.7 µM [inhibitor, partial curve].
In the case of COc1ccccc1/C=C1/C(=N/O)C2CCN1CC2, the “activity change, negative = inhibition” value is reported as inactive: -1.4%.
For CCCOc1ccc(/C(O)=C2\C(=O)C(=O)N(CCCN(C)C)C23C(=O)N(C)c2ccccc23)cc1 (centres undefined), the Potency was inconclusive: 35.5 µM [inhibitor, full curve, poor fit].
With C/C=C/c1ccc(OCC(O)CNCC(c2ccc(OC)cc2)N(C)C)c(OC)c1 (centres undefined) the Potency was inconclusive: 35.5 µM [inhibitor, full curve, poor fit].
In the case of COc1ccc(OC)c(NC(=O)CCn2cccc2)c1, the Potency is reported as inconclusive: 100 µM [inhibitor, single point].
Cc1ccc(Nc2nc(N)nc(CN3CCCCCC3)n2)c(C)c1 was tested, and the Potency was inconclusive: 39.8 µM [inhibitor, partial curve].
For Cc1ccc2cc(C(c3nnnn3C(C)(C)C)N3CCCC3)c(=O)[nH]c2c1C (centres undefined), the Potency was inconclusive: 39.8 µM [inhibitor, single point].
For Cc1cccc(N2CC(C(=O)NCc3ccco3)CC2=O)c1C (centres undefined), the Potency was inconclusive: 3.55 µM [inhibitor, single point].
For Cc1ccc(S(=O)(=O)NC(=O)Nc2ccc(F)c(F)c2)cc1, the Potency was inconclusive: 56.2 µM [inhibitor, partial curve].
For O=C(CCc1ccncc1)N1CCCC(Nc2ccc(F)c(F)c2)C1 (centres undefined), the “activity change, negative = inhibition” value was inactive: -4.89%.
For CCCC[C@@H](CNC)NC[C@H](Cc1ccc(O)cc1)NCCc1ccc(OCC)cc1, the “activity change, negative = inhibition” value was inactive: 0.149%.
For c1ccc(CNc2cnccn2)cc1, the Potency was inconclusive: 100 µM [inhibitor, single point].
For COc1cccc(C2c3c(oc4cc(C)c(C)cc4c3=O)C(=O)N2CCCN(C)C)c1 (centres undefined), the Potency was inconclusive: 89.1 µM [inhibitor, single point].
COCCNC(=O)[C@@]1(C)C=C[C@@H](Cc2ccccc2)N1C(=O)c1ccccc1 was tested, and the Potency was inconclusive: 44.7 µM [inhibitor, partial curve].
With Cc1ccc(NS(=O)(=O)c2ccc(C)c(C(=O)NCC(c3ccccc3)N(C)C)c2)cc1 (centres undefined) the Potency was inconclusive: 44.7 µM [inhibitor, partial curve].
With COc1ccccc1N1CCN(C(CNS(=O)(=O)c2cccs2)c2cccnc2)CC1 (centres undefined) the Potency was inconclusive: 50.1 µM [inhibitor, partial curve].
CC(=O)c1ccc(Oc2ncnc3sccc23)cc1 was tested, and the “activity change, negative = inhibition” value was inactive: 1.7%.
With CCOC(=O)c1cccc(NC(=O)Nc2ccc3c(c2)N(C)C(=O)c2ccccc2S3)c1 the “activity change, negative = inhibition” value was inactive: -35.3%.
For CC(C)c1cc2c(c(O)c1O)[C@@]13CCCC(C)(C)C1CC2OC3=O (some centres undefined), the Potency was active: 2.82 µM.
In the case of CCOC(=O)c1c(C)oc2nc(C)nc(NCCCN3CCN(c4cc(Cl)ccc4C)CC3)c12, the “activity change, negative = inhibition” value is reported as inactive: 2.97%.
For O=C(O)Cn1cc(/C=C/[N+](=O)[O-])c2ccccc21, the Potency was inconclusive: 50.1 µM [inhibitor, partial curve].
COc1ccc(S(=O)(=O)Cc2ccc(C(=O)N3CCCC3)o2)cc1 was tested, and the Potency was active: 44.7 µM.
With Cc1cc(C)cc(NC(=S)Nc2cccc3cnccc23)c1 the Potency was inconclusive: 22.4 µM [inhibitor, partial curve].
In the case of Oc1ccc(-c2cn3c(n2)SCC3)cc1, the “activity change, negative = inhibition” value is reported as inactive: 0.955%.
For Cc1nn(-c2ccc(F)cc2)c2c1cc(C#N)c1nc3ccccc3n12, the Potency was inconclusive: 89.1 µM [inhibitor, single point].
For O=C(NCc1ccco1)Oc1ccccc1, the “activity change, negative = inhibition” value was inactive: -3.19%.
COc1ccc(CNC(=O)CN2C(=O)NC(C)(c3ccc(C(C)(C)C)cc3)C2=O)cc1 (centres undefined) was tested, and the Potency was inconclusive: 31.6 µM [inhibitor, partial curve].
In the case of CS(=O)(=O)c1nc(S(=O)(=O)c2ccc(Cl)cc2)c(N2CCC(C(N)=O)CC2)s1, the Potency is reported as active: 11.2 µM.
NS(=O)(=O)c1ccc(-c2ccc(C=C3C(=O)NC(=O)NC3=O)o2)cc1 was tested, and the Potency was inconclusive: 44.7 µM [inhibitor, partial curve, poor fit].
With Cc1ccccc1-n1nc2c(c1NC(=O)CC(C)C)CS(=O)C2 (centres undefined) the Potency was inconclusive: 50.1 µM [inhibitor, partial curve].
Cc1nc2ccc(N)cc2s1 was tested, and the “activity change, negative = inhibition” value was inactive: -0.824%.
Cc1cc2c(cc1C)NC(c1c(C)n(C)n(-c3ccccc3)c1=O)C1=C(CC(C)(C)CC1=O)N2 (centres undefined) was tested, and the Potency was inconclusive: 31.6 µM [inhibitor, partial curve].
O=C(COc1cccnc1[N+](=O)[O-])Nc1ccc(Cl)c(S(=O)(=O)N2CCOCC2)c1 was tested, and the “activity change, negative = inhibition” value was inactive: 0.477%.
In the case of Cn1c(=O)c(=O)n(C)c2cc(S(=O)(=O)N3CCN(Cc4ccccc4)CC3)ccc21, the Potency is reported as inconclusive: 79.4 µM [inhibitor, partial curve, poor fit].
C/C(=N\Nc1ccc(F)cc1F)c1ccc(F)cc1 was tested, and the Potency was inconclusive: 31.6 µM [inhibitor, partial curve].
With O=C(/C=C/C=C/c1ccc2c(c1)OCO2)N1CCCCC1 the Potency was inconclusive: 39.8 µM [inhibitor, partial curve].
COc1ccc(OC)c(C2CC(=O)c3c([nH]c(C(=O)OCC4CCCO4)c3C)C2)c1 (centres undefined) was tested, and the “activity change, negative = inhibition” value was inactive: 0.429%.
In the case of COc1ccc(CNc2ccc3c(c2)CCC3)cc1Br, the “activity change, negative = inhibition” value is reported as inactive: -23.1%.
In the case of CCCS/C(N)=N/N=C/c1cc(C)ccc1O, the “activity change, negative = inhibition” value is reported as inactive: -4.3%.
Cc1ccc(S(=O)(=O)N2CCn3cccc3C2C)cc1 (centres undefined) was tested, and the Potency was inconclusive: 39.8 µM [inhibitor, partial curve].
For Cc1[nH]c2ccccc2c1C(=O)CN1CCC(C)CC1, the Potency was inconclusive: 39.8 µM [inhibitor, full curve].
With Cc1[nH]n2c(=O)cc(Cc3ccccc3)nc2c1C#N the “activity change, negative = inhibition” value was inactive: 9.13%.
With COc1ccc(NC(=S)Nn2cnnc2)c(OC)c1 the “activity change, negative = inhibition” value was inactive: 7.9%.
For Cc1cc(C(=O)COc2ccc(F)cc2Br)c(C)n1C1CC1, the “activity change, negative = inhibition” value was inactive: -9.53%.
For CN(Cc1ccccc1Cl)C(=O)c1cnccc1C(F)(F)F, the Potency was inconclusive: 2.51 µM [inhibitor, single point].
% is set by controls: 0 for no effect and ±100 for the full control effect; potency is the fitted concentration of half-maximal effect; tags give direction and shape of the fitted curve.
Note: nearly all actives have a fitted effect of over 60% in size.
